{"source": "PubChem BioAssay AID1508624", "about": "(National Center for Advancing Translational Sciences (NCATS), 2021)", "note": "Out of some 48,000 compounds screened, about 120 (0.25%) were called active. Roughly 4% stayed inconclusive and do not appear here. Calls come from the whole dose curve; as a rule, active = well fitted activation curve with a large enough effect; inconclusive = small, poorly fitted or top-dose-only effect, or another doubt; inactive = no such curve, though single readings can be large or run the other way. Some of the results follow. Potency is the fitted concentration of half-maximal effect.", "data": [{"test": "Primary qHTS for Identification of Small Molecule Activators of Huntingtin-Antisense Promoter Activity; note: nearly all actives have a fitted effect of over 55% in size", "settings": "HEK293 HTT-AS promoter firefly luciferase reporter, 24 h; series mostly up to 57.5 µM; activity change, positive = activation: at the top concentration", "in_short": "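Quantitative HTS used concentration series of up to 57.5 uM final on HEK293 luciferase reporter cells, 24 h at 37 degrees C. Readout was Dual-Glo firefly luminescence.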", "values": [{"smiles": "COc1ccccc1NC(=O)CSc1oc(-c2ccccc2)nc1S(=O)(=O)c1ccc(C)cc1", "activity change, positive = activation": "inactive: -1.01%"}, {"smiles": "Cc1ccc2nc(-c3cccnc3)c(Nc3ccc(C(C)C)cc3)n2c1", "activity change, positive = activation": "inactive: 6.88%"}, {"smiles": "O=C(COc1ccc2ccccc2c1)NC1CC(=O)N(c2ccccc2)C1", "note": "(stereo unspecified)", "activity change, positive = activation": "inactive: -20.6%"}, {"smiles": "Cc1nc(-c2ccc(S(=O)(=O)N3CCN(c4cc(Cl)ccc4C)CC3)cc2)co1", "activity change, positive = activation": "inactive: -21.5%"}, {"smiles": "O=C(c1ccc(F)cc1)n1nc(-c2cccnc2)nc1NCc1ccc(F)cc1", "activity change, positive = activation": "inactive: 5.39%"}, {"smiles": "O=C(NCCc1ccc(Cl)cc1)C1COc2ccccc2C1", "note": "(stereo unspecified)", "activity change, positive = activation": "inactive: 31.3%"}, {"smiles": "Cc1cn2c(=O)c(S(=O)(=O)N3CCN(c4cc(Cl)ccc4C)CC3)c(C)nc2s1", "activity change, positive = activation": "inactive: -3.81%"}, {"smiles": "O=C(Nc1cccc(-c2nc3cccnc3s2)c1)c1cccc(Br)c1", "activity change, positive = activation": "inactive: -10.9%"}, {"smiles": "CCOC(=O)c1ccc(NC(=O)c2cn(-c3ccccc3)nc2-c2ccc(OC)c(OC)c2)cc1", "activity change, positive = activation": "inactive: -8.73%"}, {"smiles": "Cc1ccc(S(=O)(=O)c2nc(-c3cccs3)oc2SC(C)C)cc1", "activity change, positive = activation": "inactive: -7.62%"}, {"smiles": "N#Cc1ccccc1NC(=O)C(=O)NCCc1csc(-c2ccc(F)cc2)n1", "activity change, positive = activation": "inactive: -9.81%"}, {"smiles": "O=C(Cn1c(=O)oc2cc(S(=O)(=O)N3CCCC3)ccc21)Nc1ccc(F)cc1F", "activity change, positive = activation": "inactive: -21.1%"}, {"smiles": "CCNC(=O)CC1C(=O)N(c2ccc(C)cc2)C(=O)N1CCC(C)C", "note": "(stereo unspecified)", "activity change, positive = activation": "inactive: -20.5%"}, {"smiles": "COc1ccc2c(Sc3ccc(Cl)cc3)c(C(=O)N3CCC(C)CC3)[nH]c2c1", "activity change, positive = activation": "inactive: 6.02%"}, {"smiles": "CCOc1ccccc1NC(=O)CSc1ncc(S(=O)(=O)c2ccc(C)c(C)c2)c(N)n1", "activity change, positive = activation": "inactive: -35.1%"}, {"smiles": "COc1ccc(CCNC(=O)Cn2cc(S(=O)(=O)Cc3ccccc3Cl)c3ccccc32)cc1OC", "activity change, positive = activation": "inactive: -18.1%"}, {"smiles": "O=C(CSc1nnc(-c2ccccc2F)o1)Nc1ccccc1Cl", "Potency": "active: 2.24 µM"}, {"smiles": "CCSc1nnc2c(n1)OC(c1ccc(C)s1)Nc1ccccc1-2", "note": "(stereo unspecified)", "activity change, positive = activation": "inactive: 6.84%"}, {"smiles": "COc1cc(NC(=O)N2CCC3(CC2)Nc2ccccc2-n2cccc23)cc(OC)c1OC", "activity change, positive = activation": "inactive: -33.8%"}, {"smiles": "CCOc1ccc(NC(=O)Cn2nnc(C(=O)NCCc3ccccc3)c2N)cc1", "activity change, positive = activation": "inactive: -16.2%"}, {"smiles": "COc1ccc(-c2noc(-c3ccc(NCC4CCCO4)c([N+](=O)[O-])c3)n2)cc1", "note": "(stereo unspecified)", "activity change, positive = activation": "inactive: -2.81%"}, {"smiles": "CNC(=O)c1c(NC(=O)Cc2coc3ccc(C)cc23)sc2c1CCCC2", "activity change, positive = activation": "inactive: -16.3%"}, {"smiles": "CCc1nn(CC(=O)Nc2c(C)cccc2C)c(=O)c2cc3sccc3n12", "activity change, positive = activation": "inactive: -10.1%"}, {"smiles": "O=C(CSc1nc2c([nH]c3ccccc32)c(=O)n1-c1ccccc1)Nc1ccc(Cl)c(Cl)c1", "activity change, positive = activation": "inactive: -33.9%"}, {"smiles": "Cc1ccc(CCNC(=O)c2cn(C)c3ccc(S(=O)(=O)N4CCC(C)CC4)cc3c2=O)cc1", "activity change, positive = activation": "inactive: -5.46% [at 11.5 µM, percent change from vehicle, -100% = no light]"}, {"smiles": "Cc1cc(C)c(NC(=O)CCCn2c(C)c3cnn(-c4ccccc4)c(=O)c3c2C)c(C)c1", "activity change, positive = activation": "inactive: -25.1%"}, {"smiles": "CC(C)CC(=O)Nc1nnc(SCc2cc(=O)n3ccccc3n2)s1", "activity change, positive = activation": "inactive: -16.4%"}, {"smiles": "COc1cc(OC)cc(-c2nc3nc(C)c(CCC(=O)NCCC(C)C)c(C)n3n2)c1", "activity change, positive = activation": "inactive: -0.0054%"}, {"smiles": "CCOC(=O)c1c(S(=O)(=O)NCC(=O)Nc2ccc(F)cc2C)c(C)n(C)c1C", "activity change, positive = activation": "inactive: -7.8%"}, {"smiles": "CCN(CC)S(=O)(=O)c1ccc2[nH]cc(C(=O)NCCc3ccccc3)c(=O)c2c1", "activity change, positive = activation": "inactive: -36.3%"}, {"smiles": "O=c1c(S(=O)(=O)c2cccc(Cl)c2)cn(Cc2ccccc2)c2cc(N3CCCCC3)c(F)cc12", "activity change, positive = activation": "inactive: 0.65%"}, {"smiles": "COc1ccccc1NC(=O)CN1C(=O)CSc2ccc(S(=O)(=O)N3CCCC3)cc21", "activity change, positive = activation": "inactive: -15.1%"}, {"smiles": "CCn1ccc2cc(S(=O)(=O)N3CCC(C(=O)NCCc4ccccc4)CC3)ccc21", "activity change, positive = activation": "inactive: -15.8%"}, {"smiles": "CC(=O)C1=C(c2ccc(Br)cc2)N(C(C)=O)n2c(nnc2C2CCCCC2)S1", "activity change, positive = activation": "inactive: -2.97%"}, {"smiles": "COc1cc(OC)c(NC(=O)c2c(C)oc3nc(C)nc(N4CCOCC4)c23)cc1Cl", "activity change, positive = activation": "inactive: -0.358%"}, {"smiles": "COc1cccc(-n2cc(C(=O)OCc3ccc(Cl)cc3)c3ccccc3c2=O)c1", "activity change, positive = activation": "inactive: -26.6%"}, {"smiles": "Cc1cccc(CNC(=O)c2ccc(C)c(-n3c(C)nc4cccnc43)c2)c1", "activity change, positive = activation": "inactive: -9.89%"}, {"smiles": "CCOc1ccc(-n2c(=O)c3c(C)c(C)sc3n(CC(=O)N3CCC(C)CC3)c2=O)cc1", "activity change, positive = activation": "inactive: 11.8%"}, {"smiles": "O=C(NCc1ccccc1Cl)c1ccc(Cn2c(=O)c3cccn3c3cccnc32)cc1", "activity change, positive = activation": "inactive: -24.7%"}, {"smiles": "CCCCOc1cccc(NC(=O)c2cccc(C(=O)Nc3cccc(OCCCC)c3)c2)c1", "activity change, positive = activation": "inactive: 17.3%"}, {"smiles": "CCOC(=O)c1c(C)oc2nc(C)nc(NCc3cccc(Cl)c3)c12", "activity change, positive = activation": "inactive: -15.9%"}, {"smiles": "O=C(c1cccc(Cl)c1)n1nc(-c2cccnc2)nc1NCc1ccccc1", "activity change, positive = activation": "inactive: 10.5%"}, {"smiles": "CCOC(=O)C1=C(N)Oc2ccc(Br)cc2C1C(C#N)C(=O)OCC", "note": "(stereo unspecified)", "activity change, positive = activation": "inactive: 0.793%"}, {"smiles": "CCOC(=O)c1nc(Nc2ccc(C(=O)OC)cc2)c2ccccc2n1", "activity change, positive = activation": "inactive: -18%"}, {"smiles": "CSCCC(NS(=O)(=O)c1ccc2c(c1)oc(=O)n2C)C(=O)N1CCN(c2ccc(C(C)=O)cc2)CC1", "note": "(stereo unspecified)", "activity change, positive = activation": "inactive: -0.406%"}, {"smiles": "COc1cccc(C(=O)NCC(=O)OCc2cc(=O)n3ccsc3n2)c1", "activity change, positive = activation": "inactive: -9.88%"}, {"smiles": "CCc1ccccc1NC(=O)c1ccc(=O)n(Cc2ccc(F)cc2)c1", "activity change, positive = activation": "inactive: -12.3%"}, {"smiles": "CCc1ccc(-n2c(=O)c3cccnc3n2CC(=O)Nc2cc(OC)ccc2OC)cc1", "activity change, positive = activation": "inactive: -4.04%"}, {"smiles": "COc1cc(OC)cc(C(=O)Nc2nnc3n2CCS3)c1", "activity change, positive = activation": "inactive: -19%"}, {"smiles": "Cc1ccc(C(=O)Nc2nc(-c3nnn(-c4cccc(C(F)(F)F)c4)c3C)ns2)cc1", "activity change, positive = activation": "inactive: -15.9%"}, {"smiles": "O=C(O)CCc1nnc2cnc3ccccc3n12", "activity change, positive = activation": "inactive: 3.01%"}, {"smiles": "Cc1ccc2ncc(C(=O)NC(C)c3ccccc3)c(=O)n2c1", "note": "(stereo unspecified)", "activity change, positive = activation": "inactive: -23.7%"}, {"smiles": "CC(=O)N1CCC2(CC1)OC(=O)C(C)=C2C(=O)NCc1cccc(Cl)c1", "activity change, positive = activation": "inactive: -7.98%"}, {"smiles": "Cc1ccc(N2C(=O)CS(=O)(=O)C23C(=O)N(C)c2ccccc23)cc1F", "note": "(stereo unspecified)", "activity change, positive = activation": "inactive: -22.9%"}, {"smiles": "Cc1ccc(C)c(Nc2cc(C(=O)NCCCN(C)C3CCCCC3)c3ccccc3n2)c1", "activity change, positive = activation": "inactive: -21.4%"}, {"smiles": "Cc1ccc(N2CCN(C(=O)c3c(C)oc4ncnc(N5CCOCC5)c34)CC2)c(C)c1", "activity change, positive = activation": "inactive: -6.49%"}, {"smiles": "COc1cc(NC(=O)NCC2CCN(Cc3ccc(C)cc3)CC2)cc(OC)c1OC", "activity change, positive = activation": "inactive: -13.2%"}, {"smiles": "Cc1ccc(C(=O)Nc2nnc(S(=O)(=O)N3CCN(c4ccc(F)cc4)CC3)s2)cc1", "activity change, positive = activation": "inactive: 4.14%"}, {"smiles": "Cc1ccc(CN2CCCn3nc(C(=O)NCc4cc(C)ccc4C)cc3C2=O)cc1", "activity change, positive = activation": "inactive: -20.7%"}, {"smiles": "C[N+](C)(C)CC(O)CC(=O)[O-]", "note": "(stereo unspecified)", "activity change, positive = activation": "inactive: -13%"}, {"smiles": "Cc1ccc(CNC(=O)c2cnc3c(-c4ccccc4)c(C)nn3c2C)o1", "activity change, positive = activation": "inactive: 6.56%"}]}]}
